Test results: patent US20250207109A1, “ENGINEERED SPLIT DHFR-BASED METHODS AND SYSTEMS FOR SELECTING CELLS THAT HAVE STABLY ACQUIRED A HETEROLOGOUS POLYNUCLEOTIDE” (DNA Twopointo, Inc., priority 2022, published 2025)

Test system: Jurkat cells
Test: Split DHFR complementation assay, methotrexate selection of Jurkat cells expressing DHFR fragment fusion proteins
Type: cell-based, human
Details: 0.2 μM methotrexate, two weeks; rimiducid 100 nM for FKBP12.6tr pair
Source text: The truncated version of FKBP12.6 carrying the F36V substitution (SEQ ID NO: 192) was fused at its carboxy terminus to the two fragments of murine DHFR as in Example 1, with one of the fragments bearing the L22F and F31S substitutions to confer methotrexate resistance (SEQ ID NOs: 190 and 191).
As a control, the P7A/P8A pair of DHFR fragment fusion proteins (involving SEQ ID Nos: 188 and 189) was also used. Whereas the P7A/P8A pair of constructs co-expressed the DHFR fragments with a red fluorescent protein (RFP; plobRFP) or a blue fluorescent protein (BFP; mTagBFP2), both FKBP12.6 tr transposons carried a BFP transgene.
Jurkat cells were co-transfected by electroporation (ThermoFisher Neon; 100 μl tips; 1350V, three 10 ms pulses) with pairs of plasmids carrying transposons encoding the two DHFR fragments (7.5 μg of each) together with mRNA encoding the Leap-In Transposase® enzyme (2 μg). The cells were plated in RPMI-1640 medium supplemented with fetal bovine serum (10% vol/vol) and methotrexate (0.2 μM). Rimiducid at 100 nM was added to the medium of cells that had been transfected with the FKBP12.6tr pair of plasmids.
At left is the result for cells expressing the DHFR fragments fused to the P7A/P8A heterodimerizing coiled-coil peptides. […] Untransfected cells were analyzed under identical conditions as a control (at right).

B1: FKBP12.6tr_F36V-based fusion proteins: truncated FKBP12.6 carrying F36V fused at its carboxy terminus to the two fragments of murine DHFR (protein)
chain 1: [about 100 residues omitted here]SGGGSVRPLNCIVAVSQNMGIGKNGDFPWPPLRNESKYFQRMTTTSSVEGKQNLVIMGRKTWFSIPEKNRPLKDRINIVLSRELKEPPRGAHFLAKSLDDALRLIEQPEL
chain 2: [about 100 residues omitted here]SGGGSASKVDMVWIVGGSSVYQEAMNQPGHLRLFVTRIMQEFESDTFFPEIDLGKYKLLPEYPGVLSEVQEEKGIKYKFEVYEKKD
B1 was tested. Which “methotrexate resistance / survival of transfected cells” value did it give?
The value was “allowed survival in the presence of methotrexate”.
